Consider 41 molecules from ChEMBL document CHEMBL4888484, “Replenishing the malaria drug discovery pipeline: Screening and hit evaluation of the MMV Hit Generation Library 1 (HGL1) against asexual blood stage Plasmodium falciparum ,using a nano luciferase reporter read-out” (2022).

A word on the % Inhibition: it is the change of the read-out against control, counted positive when it falls.

Hit rate of the full screen: of about 150,000 compounds, about 540 (0.36%) showed an effect of 50% or more. This is one part of the list.

The test system of this assay is Plasmodium falciparum. Kind of assay: Primary screen in NF54 nanoGlo assay, in single point, at 2uM, 72h; a lower Z score goes with more inhibition. In kind it is functional, Erythrocyte. As to conditions: timepoint 72 hour.
On to `Cc1c(F)cccc1NS(=O)(=O)c1cc(-c2nc(C(C)(C)C)cs2)cs1`, for which the “% Inhibition” value is listed as -12% and the Z score was determined as 1.7.

In the case of `CCCOc1ccc(-c2csc(NC(=O)c3cc(-c4ccccc4)nc4ccccc34)n2)cc1`, the “% Inhibition” value is on record as -15% and the Z score is on record as 2.41.

Consider `Cc1c[nH]c([C@H](C)NC(=O)N(C)CCn2ccnc2C)n1`, for which the “% Inhibition” value was -1% and the Z score amounted to 0.22.

Consider `Cn1cc(Cl)c(C(=O)NCC#C[C@@H]2CCCCO2)n1`, for which the “% Inhibition” value is -15% and the Z score was 1.95.

Take `CCCN(CCC)C(=O)[C@H]1CCC[C@H]1NC(=O)c1ccc(OC)nc1`: the “% Inhibition” value came to 2% and the Z score was -0.26.

As to `O=C(NCc1nnc2ccccn12)c1ccccc1C(=O)c1ccc(Cl)cc1`, the “% Inhibition” value stood at 2% and the Z score was -0.15.

As for `COC[C@H]1CN(C)CC12CCN(Cc1ccc(F)c(Cl)c1)CC2`, the “% Inhibition” value is recorded as -10% and the Z score was determined as 1.15.

For the molecule `O=C(NCCn1ccc(C(F)(F)F)n1)c1ccsc1`, the “% Inhibition” value is -17% and the Z score turned out to be 2.11.

With `COc1ccc(-c2cc(C(=O)N[C@H]3CCN(c4ccc(=O)[nH]n4)C3)c(C)n2C)cc1`, the “% Inhibition” value came out at 82% and the Z score is on record as -5.36.

In the case of `CCc1ccccc1NC(=O)[C@H]1CCC[C@H]1NC(=O)c1cnc(C)cn1`, the “% Inhibition” value was determined as 7% and the Z score was -0.96.

`CCCn1cc(CN2CCc3[nH]nc(CCc4ccccc4)c3C2)c(C)n1`: the “% Inhibition” value is recorded as -9% and the Z score came out at 1.25.

As to `COc1cccc(CC(=O)Nc2nnc([C@H]3CC(=O)N(c4ccc(Cl)cc4)C3)o2)c1`, the “% Inhibition” value is -5% and the Z score was 0.66.

For `CC[C@@H](c1ccc(F)cc1F)N1CCN(C(=O)Nc2nncs2)CC1`, the “% Inhibition” value is recorded as -14% and the Z score was found to be 2.04.

As for `Cc1ccc(Cc2nc(N3CCN(C(=O)c4ccc(Cl)c(Cl)c4)CC3)c3c(-c4cccnc4)noc3n2)cc1`, the “% Inhibition” value was -1% and the Z score came to 0.07.

Take `NC(=O)c1ccc(O[C@H]2CCOC[C@@H]2NC(=O)c2cccc(N)n2)cc1`: the “% Inhibition” value was -10% and the Z score was 1.15.

For `O=C(NCCNc1ncccn1)[C@@H]1CC=CCC1`, the “% Inhibition” value is given as -8% and the Z score is listed as 0.71.

As to `Cc1cc(OCC(=O)N2CCN(C(=O)c3cccc(F)c3)CC2)no1`, the “% Inhibition” value is listed as -9% and the Z score was 1.15.

As for `O=C(Nc1cccnc1-n1cccn1)c1ncc(F)cc1F`, the “% Inhibition” value was -6% and the Z score amounted to 0.82.

Take `Cc1ncsc1CNC(=O)CCc1ccc(Br)cc1`: the “% Inhibition” value is -4% and the Z score is recorded as 0.45.

On to `C[C@H](NS(=O)(=O)C1CN(C(=O)OCc2ccccc2)C1)C(N)=O`, for which the “% Inhibition” value is recorded as -6% and the Z score was found to be 1.11.

For `COc1cccc(CC(=O)N2C[C@H]3CNC(=O)[C@]34CCCC[C@@H]24)c1`, the “% Inhibition” value is reported as -6% and the Z score worked out at 0.89.

In the case of `CCN(C)c1ccc(-c2noc([C@H]3CCCc4[nH]ncc43)n2)cc1`, the “% Inhibition” value was -2% and the Z score is on record as 0.26.

For the molecule `Cc1ccc(Cl)cc1S(=O)(=O)N[C@@H](C#N)C(C)C`, the “% Inhibition” value is recorded as 2% and the Z score is listed as -0.18.

Take `CN1CCc2ncnc(N3CCC[C@@H]3CCc3ccccn3)c2C1`: the “% Inhibition” value is listed as -2% and the Z score is reported as 0.3.

On to `Cc1nn(-c2ccccc2)c(C)c1-c1cc(C(=O)O)nc2c3cccnc3nn12`, for which the “% Inhibition” value was -3% and the Z score was determined as 0.36.

On to `Cn1nncc1NC(=O)N[C@@H]1c2ccccc2CC[C@@H]1O`, for which the “% Inhibition” value is -10% and the Z score amounted to 1.81.

Turning to `O=C1CCc2cc(NC3CCOCC3)ccc2N1CC1CC1`, the “% Inhibition” value is on record as -18% and the Z score turned out to be 2.38.

In the case of `O=c1c(S(=O)(=O)N2CCCCC2)cccn1Cc1cc(F)cc(F)c1`, the “% Inhibition” value is on record as -1% and the Z score was 0.08.

`CC(C)n1cc(C(=O)N2CCC(Nc3ccccn3)CC2)cn1`: the “% Inhibition” value was found to be 8% and the Z score is given as -0.96.

On to `COc1ccc2ncccc2c1NC(=O)C1CC1C` (configuration not stated), for which the “% Inhibition” value is -2% and the Z score is on record as 0.32.

Turning to `O=C(CCS(=O)(=O)c1ccc(Cl)cc1)NCc1ccco1`, the “% Inhibition” value came out at 28% and the Z score was -3.77.

As for `O=C(NC[C@H]1Cn2ccnc2CO1)c1cccnc1`, the “% Inhibition” value is -3% and the Z score was found to be 0.45.

As to `Cc1cnn(C)c1CN1CCOC[C@H]1c1nc(-c2ccccc2)no1`, the “% Inhibition” value amounted to 16% and the Z score is on record as -2.06.

Regarding `Cc1ccc(C2=C[C@@H](c3ccc(C)cc3)n3nnnc3N2CC(=O)Nc2ccc(N(C)C)cc2)cc1`, the “% Inhibition” value is 9% and the Z score is on record as -0.92.

For `CC(C)n1cc(CNc2cccc3c2CCN(CC(C)(C)O)C3)nn1`, the “% Inhibition” value is reported as 1% and the Z score was -0.1.

Take `COc1ncnc(N)c1CNc1cccc(-c2nncn2C)c1`: the “% Inhibition” value is -1% and the Z score worked out at 0.1.

On to `Cc1noc(C)c1CNc1nccn(C)c1=O`, for which the “% Inhibition” value is recorded as -3% and the Z score is given as 0.44.

With `COc1ccc(OC[C@H]2CC3(CCCCC3)CN2C(=O)c2cscn2)cc1`, the “% Inhibition” value is recorded as 0% and the Z score stood at 0.01.

With `Cc1cncc(NC(=O)[C@@H](N)C(F)(F)F)c1`, the “% Inhibition” value is recorded as 1% and the Z score was -0.2.

`COc1cccc([C@H](CN2CCN(S(=O)(=O)c3c(C)nn(C)c3Cl)CC2)OCc2ccc(C)cc2)c1`: the “% Inhibition” value was -1% and the Z score is given as 0.14.

As for `O=S(=O)(NCCc1nccs1)N1CCCC1`, the “% Inhibition” value is -10% and the Z score was determined as 1.02.
